# Measured values reported in PubChem BioAssay AID360 (National Center for Advancing Translational Sciences (NCATS), 2006).
# The whole screen tested about 48,000 compounds, of which about 550 (1.1%) were called active. About 4% were inconclusive and are not listed. Cut-off read from the data, not from the text of the source: active = potency below about 15 µM; inconclusive = mostly about 16 µM to 33 µM; inactive = weaker than that. Some of the results follow.
# Molecular target: Lysosomal acid glucosylceramidase (Homo sapiens) (UniProt P04062)
# Experiment: Glucocerebrosidase;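 note: the screen sought inhibitors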
# Conditions: purified enzyme, resorufin glucoside fluorescence (screen aimed at inhibitors), 20 min
# In short: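 Normal human glucocerebrosidase (0.2 nM final) was assayed with resorufin β-D-glucopyranoside (30 uM final) in 50mM citric acid/KH2PO4, 10mM sodium taurocholate, 0.01% tween-20, pH 5.9. Compounds were titrated; fluorescence (Ex 548, Em 600) read after 20 min at RT.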
# Potency is the fitted concentration of half-maximal effect.
# Sequence of UniProt P04062 (P04062 whole entry, looked up): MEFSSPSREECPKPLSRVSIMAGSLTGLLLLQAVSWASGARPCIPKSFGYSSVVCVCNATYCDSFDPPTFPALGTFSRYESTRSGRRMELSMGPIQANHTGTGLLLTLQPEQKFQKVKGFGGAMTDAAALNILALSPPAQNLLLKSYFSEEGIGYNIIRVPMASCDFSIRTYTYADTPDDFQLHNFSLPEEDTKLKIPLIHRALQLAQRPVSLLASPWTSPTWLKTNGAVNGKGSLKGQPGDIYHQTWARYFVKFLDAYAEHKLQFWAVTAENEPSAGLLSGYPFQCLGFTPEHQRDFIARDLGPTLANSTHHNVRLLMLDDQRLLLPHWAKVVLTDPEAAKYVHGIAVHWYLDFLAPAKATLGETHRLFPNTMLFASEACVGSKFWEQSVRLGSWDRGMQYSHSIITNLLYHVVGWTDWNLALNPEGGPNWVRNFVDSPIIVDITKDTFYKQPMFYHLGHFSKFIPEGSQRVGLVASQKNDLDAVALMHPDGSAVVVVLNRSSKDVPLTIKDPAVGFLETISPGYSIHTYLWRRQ
row,Compound,Potency
1,CC(C)NS(=O)(=O)c1ccc(OCC(=O)Nc2ccc3c(c2)OCCO3)cc1,inactive: > 76.9 µM
2,Nc1ccc(CCc2nc3ccccc3o2)cc1,inactive: > 76.9 µM
3,CCC(C)[C@H](NC(=O)NCc1cccc(OC)c1)C(=O)O (stereo not given in full),inactive: > 76.9 µM
4,O=C1CCCc2c1cc(C(=O)NC1CCSC1=O)c(=O)n2-c1ccccc1 (stereo not given),inactive: > 76.9 µM
5,Cc1ccc(OCCC(=O)OCC(=O)C(C)(C)C)cc1,inactive: > 76.9 µM
6,O=C(NCc1cccs1)c1nc2ncccn2n1,inactive: > 76.9 µM
7,COc1cccc(S(=O)(=O)NCc2ccc(C(=O)NCC3CCCO3)cc2)c1 (stereo not given),inactive: > 76.9 µM
8,Cc1nn(CC(=O)Nc2ccccc2)c(=O)c2ccccc12,inactive: > 76.9 µM
9,Cc1ccccc1-c1nnc(SCC(=O)Nc2ccc3c(c2)OCCO3)n1N,inactive: > 76.9 µM
10,Cc1ccc(-c2nnc3sc(-c4ccncc4)nn23)cc1,inactive: > 76.9 µM
11,COc1cccc(C2=NOC(C(=O)NCc3ccccc3)C2)c1 (stereo not given),inactive: > 76.9 µM
12,CCC(C)Sc1nc2c(c(=O)[nH]c(=O)n2C)n1CCc1ccccc1 (stereo not given),inactive: > 76.9 µM
13,Cc1occc1-c1nnc(SCC(=O)NC(C)(C)C)n1C(C)c1ccccc1 (stereo not given),inactive: > 76.9 µM
14,COc1ccccc1CNC(=O)CCN1C(=O)COc2ccc(C)cc21,inactive: > 76.9 µM
15,O=C(c1ccco1)N1CCN(C(=O)C2CCN(S(=O)(=O)Cc3ccccc3)CC2)CC1,inactive: > 76.9 µM
16,c1ccc2c(N3CCCCC3)nc(N3CCCC3)nc2c1,inactive
17,C=CCn1c(COc2ccc(Cl)cc2)nnc1SCC(=O)N1CC(=O)Nc2ccccc21,inactive: > 76.9 µM
18,COc1ccc(S(=O)(=O)NCC(=O)N(CC(=O)NCC2CCCO2)c2ccccc2C)cc1 (stereo not given),inactive: > 76.9 µM
19,Cc1cccc2cc(COC(=O)COc3ccccc3)c(=O)[nH]c12,inactive: > 76.9 µM
20,N#Cc1nc(Cc2cccc3ccccc23)oc1N1CCCCC1,inactive: > 76.9 µM
21,Cc1ccnc(NC(=O)CCC(=O)N(CC(=O)NC2CCCCC2)CC2CCCO2)c1 (stereo not given),inactive: > 76.9 µM
22,O=S(=O)(c1cccc(-c2nnc(SCc3ccc(Cl)cc3)o2)c1)N1CCCCC1,inactive: > 76.9 µM
23,CC(=O)c1cccc(NC(=O)N2CCN(S(C)(=O)=O)CC2)c1,inactive: > 76.9 µM

row,Compound,Potency
1,CCC(C)Oc1cccc(C(=O)Nc2ccccc2N2CCOCC2)c1 (stereo not given),inactive: > 76.9 µM
2,COc1ccccc1N1CCN(C(CNC(=O)c2ccc3c(c2)OCO3)c2cccnc2)CC1 (stereo not given),inactive: > 76.9 µM
3,Cc1nc2cc(F)ccc2n1C1CCN(S(=O)(=O)c2ccccc2)CC1,inactive: > 76.9 µM
4,CCCCCc1nc2c(=O)n(C)c3ccccc3c2o1,inactive: > 76.9 µM
5,N=C1C(c2nc3ccccc3s2)=C(O)CN1Cc1ccco1,inactive: > 76.9 µM
6,Cc1cc(C)c(NC(=O)CCCN2CCOCC2)c(C)c1,inactive: > 76.9 µM
7,CCOc1cccc2c1OC1(C)CC2NC(=O)N1c1ccc(OC)cc1 (stereo not given),inactive: > 76.9 µM
8,COc1ccc(Br)cc1C1SCCN1S(C)(=O)=O (stereo not given),inactive: > 76.9 µM
9,N#CC[n+]1cc(-c2ccc(Cl)cc2)n2c1CCC2,inactive: > 76.9 µM
10,Cc1ccc(C(=O)N2CCCCCC2)cc1Br,inactive: > 76.9 µM
11,S=C(c1ccc(N2CCCC2)cc1)N1CCCCC1,inactive: > 76.9 µM
12,CC1=CC(C)(C)Nc2ccc(C)cc21,inactive: > 76.9 µM
13,CC1(C)NC(=O)N(CC(O)COC2CCCCC2)C1=O (stereo not given),inactive: > 76.9 µM
14,COc1cc(CNCc2ccc(OC)c(OC)c2OC)cc(OC)c1,inactive: > 76.9 µM
15,COc1cc(OC)cc(N(C(=O)c2ccco2)C(C(=O)NC2CCCC2)c2ccc(N(C)C)cc2)c1 (stereo not given),inactive
16,O=C(CSc1nnc(-c2ccc(F)cc2)o1)Nc1ccc(S(=O)(=O)N2CCCCCC2)cc1,inactive: > 76.9 µM
17,COc1ccccc1OC1=NS(=O)(=O)c2ccccc21,inactive: > 76.9 µM
18,Cn1c(=O)c2c(nc(N3CCCCC3)n2CCSc2nc3ccccc3s2)n(C)c1=O,inactive: > 76.9 µM
19,CCn1c(SCC(=O)N2CCN(c3ccccc3F)CC2)nnc1-c1ccoc1C,inactive: > 76.9 µM
20,CCOc1cc(-c2nn3cnnc3s2)cc(OCC)c1OCC,inactive: > 76.9 µM
21,Cc1noc(C)c1CSc1nc2ccccc2c(=O)n1-c1ccccc1,inactive: > 76.9 µM
22,Cc1ccc(SC/C(O)=C(\C#N)c2nc3ccccc3s2)cc1,inactive: > 76.9 µM
23,COc1ccc(CNC(=O)C(C)N(Cc2ccco2)C(=O)c2snc(C(N)=O)c2N)cc1 (stereo not given),inactive: > 76.9 µM

row,Compound,Potency
1,C=CCn1c(COc2ccccc2F)nnc1SCC(=O)NC(=O)NCc1ccco1,inactive: > 76.9 µM
2,CCNc1nc(SCC(=O)OC)nc(N2CCOCC2)n1,inactive: > 76.9 µM
3,N#C/C(C(=O)N1CCOCC1)=C1\Nc2ccccc2S1,inactive: > 76.9 µM
4,COc1ccc(CC(C(=O)Nc2cccc(F)c2)c2nn[nH]n2)c(OC)c1 (stereo not given),inactive: > 76.9 µM
5,COc1ccc(OC)c(NC(=O)CCNS(=O)(=O)c2cccs2)c1,inactive: > 76.9 µM
6,COc1ccc(/C(O)=C2/C(=O)C(=O)N(CCN(C)C)C2c2ccc(OC)c(OC)c2)c(C)c1 (stereo not given),inactive: > 76.9 µM
7,CC(C)c1ccc(NC(=O)C2CC(=O)N(C(C)C)C2)cc1 (stereo not given),inactive: > 76.9 µM
8,Cc1cccn2c(=O)c3cc(C(=O)Nc4ccc(N(C)C)cc4)n(C)c3nc12,inactive: > 76.9 µM
9,CN(C)CCCNC(=O)CC(c1ccc(F)cc1)c1ccco1 (stereo not given),inactive: > 76.9 µM
10,CCOC(=O)C(NC(=O)c1cccnc1)(Nc1cccc(C)n1)C(F)(F)F (stereo not given),inactive: > 76.9 µM
11,COc1ccc(OC)c(NC2=NC3(CCCCC3)N=C(N)N2)c1,inactive: > 76.9 µM
12,O=C(CSc1nnc(CNC(=O)c2cccs2)o1)Nc1ccc2c(c1)OCO2,inactive: > 76.9 µM
13,CCCCc1cc(=O)oc2cc(OCc3nn[nH]n3)c(Cl)cc12,inactive: > 76.9 µM
14,O=C(Nc1ccc(OC(F)F)c(Cl)c1)Nc1ccc2c(c1)OCO2,inactive: > 76.9 µM
15,Cc1ccc(C(=O)NCc2ccc3c(c2)OCO3)cc1S(=O)(=O)N1CCCCC1,inactive: > 76.9 µM
16,O=C(c1cccnc1)N1C2CCC1CC(O)(c1ccc(F)cc1)C2 (stereo not given),inactive: > 76.9 µM
17,CCC(=O)N1CCc2cc(S(=O)(=O)CCC(=O)Nc3ccc(C)c(F)c3)ccc21,inactive: > 76.9 µM
18,COc1cc2c(cc1OC)CN(C(=O)CSc1n[nH]c(N)n1)CC2,inactive: > 76.9 µM
19,O=C(Nc1cccc(NC(=O)c2cccnc2)c1)c1cccnc1,inactive: > 76.9 µM
20,CCn1cc(C(=O)Nc2cc3c(cc2NC(C)=O)OCCO3)c(=O)c2ccc(C)nc21,inactive: > 76.9 µM
21,Cc1c(C(=O)N2CCCCC2)sc(NC(=O)C(C)C)c1C#N,inactive: > 76.9 µM
22,CC(C)(C)C(=O)Cn1c(=N)n(Cc2ccccc2)c2ccccc21,inactive: > 76.9 µM
23,Cc1nc2ccc(C(=O)N3CCN(c4ccccn4)CC3)cc2s1,inactive: > 76.9 µM

row,Compound,Potency
1,CCc1nnc(NC(=O)C2CCN(S(=O)(=O)Cc3ccccc3)CC2)s1,active: 4.26 µM
2,CCOC(=O)N1CCN(C(=O)c2ccc(N(C)S(C)(=O)=O)cc2)CC1,inactive: > 76.9 µM
3,COc1ccc(-c2n[nH]c(C)c2-c2ccc(OC)c(OC)c2)c(O)c1,inactive: > 76.9 µM
4,C=CCOc1ccc(/C=N/n2cncn2)cc1OC,inactive: > 76.9 µM
5,CCOC(=O)NCc1ccc(S(=O)(=O)Nc2ccccc2C)cc1,inactive: > 76.9 µM
6,O=C(CSc1ccc2nnc(-c3ccc(F)cc3)n2n1)NCC1CCCO1 (stereo not given),inactive: > 76.9 µM
7,COc1cccc(CSc2nc3sc(C)c(C)c3c(=O)n2Cc2ccco2)c1,inactive: > 76.9 µM
8,CCOc1cc(S(=O)(=O)NCc2ccc3c(c2)OCO3)c(C)cc1C,inactive: > 76.9 µM
9,COC(=O)CSc1nsc(SCC(=O)OC)c1C#N,inactive: > 76.9 µM
10,COC(=O)[C@H](CCSC)NC(=O)NCc1ccccn1,inactive: > 76.9 µM
11,CCCCCOC(=O)Cn1c(SCC(=O)Nc2ccccc2)nc2c1c(=O)[nH]c(=O)n2C,inactive: > 76.9 µM
12,Cc1cccc2sc(NC(=O)C3CCCN(S(=O)(=O)c4cccc5nonc45)C3)nc12 (stereo not given),inactive: > 76.9 µM
13,O=C(CSc1nc2ccc(Cl)cc2[nH]1)NCc1ccco1,inactive: > 76.9 µM
14,C=CCn1c(=O)c2ccccc2n2c(SC(C)C(=O)Nc3nc(-c4ccccc4)cs3)nnc12 (stereo not given),inactive: > 76.9 µM
15,COc1ccc(OC)c(NC(=O)CSc2nc3cccnc3n2C)c1,inactive: > 76.9 µM
16,CCOC(=O)c1csc(NC(=O)c2ccc(S(=O)(=O)N3CCCC3)cc2)n1,inactive: > 76.9 µM
17,O=C(CCC(=O)N1CCCC1)Nc1nnc(C(F)(F)F)s1,inactive: > 76.9 µM
18,CC1=C(C)C(=O)N(c2ccc(C(=O)O)cc2)C1=O,inactive: > 76.9 µM
19,CCN(C(=O)c1cn(C)c(=O)c2cc(OC)c(OC)cc12)c1ccccc1C,inactive: > 76.9 µM
20,CCOC(=O)c1ccc2c(c1)nc(SCc1cn3ccsc3n1)n2CC,inactive: > 76.9 µM
21,O=C(NCCCN1CCN(c2ccccc2F)CC1)C1CCN(S(=O)(=O)N2CCOCC2)CC1,inactive: > 76.9 µM
